Experimental data as given in PubChem BioAssay AID686970 (National Center for Advancing Translational Sciences (NCATS), 2013).
Out of some 360,000 compounds screened, about 6,000 (1.7%) were called active. This list was built around the results that the source calls inconclusive (neither active nor inactive); the mix of calls is not that of the screen. Calls come from the whole dose curve; as a rule, active = well fitted cell-killing curve with a large enough effect; inconclusive = small, poorly fitted or top-dose-only effect, or effect the other way; inactive = flat fitted curve, though single readings scatter. No potency is given beside an inconclusive call; the fits are too rough.

Experiment: qHTS for induction of synthetic lethality in tumor cells producing 2HG: qHTS for the HT-1080-NT fibrosarcoma cell line;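 note: NT is the 2HG producing partner of a matched IDH1 knockdown line; nearly all actives have a fitted effect of over 55% in size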;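 for activity, negative = less viability: 0% = DMSO-treated cells and -100% = media-only wells without cells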
Details: HT-1080-NT fibrosarcoma viability, CellTiter-Glo ATP luminescence, 48 h; activity, negative = less viability: at 46.1 µM (top of the series) unless noted
Outline: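 Viability by CellTiter-Glo luminescence after 48 h compound exposure at 37C of HT-1080-NT cells (750/well, RPMI, 5% FBS). % activity scaled between DMSO wells and medium-only wells, then curve-fitted and categorized by curve class.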
Potency is the fitted concentration of half-maximal effect; tags give direction and shape of the fitted curve.

SMILES	activity, negative = less viability	Potency
C/C(=N/NC(=O)C1CCCN1C(=O)c1ccc([N+](=O)[O-])cc1)c1ccc(Br)cc1 (stereo not given)	inactive: 15.9%	–
Cc1cc(C)n(-c2nc(-c3ccc(Cl)c(Cl)c3)cs2)n1	inconclusive: 32.9%	–
N#Cc1ccc(C(=O)N2CCN(S(=O)(=O)c3ccc(Cl)s3)CC2)cc1	inactive: -7.04% [at 9.24 µM]	–
CCCCOc1ccccc1-c1ccccc1CN1[C@@H](C(C)C)COCCS1(=O)=O	–	inconclusive [cytotoxic, single point]
COC(=O)[C@@]1(Cc2ccc(F)cc2)[C@H]2c3cc(C(=O)N(C)C)n(Cc4ccsc4Br)c3C[C@H]2CN1C(=O)c1ccccc1	–	inconclusive [cytotoxic, single point]
COc1cccc(NC(=O)C(Sc2nnc(-c3ccncc3)n2-c2ccc(Cl)cc2)c2ccccc2)c1 (stereo not given)	–	inconclusive [cytotoxic, partial curve]
O=C(C[C@H]1C[C@H](C(=O)N2CCCCC2)[C@@]2(CCc3ccccc3)c3[nH]c4cc(-c5ccco5)ccc4c3CCN2C1=O)NCCC1=CCCCC1	inactive: 0.0099%	–
CCOc1ccc2nc(NC(=O)C(CCSC)NS(=O)(=O)c3cccs3)sc2c1 (stereo not given)	inactive: -5.24%	–
OCC1(CCOc2ccccc2)CCN(Cc2cc(Cl)ccc2O)CC1	–	inconclusive [cytotoxic, partial curve, poor fit]
Cc1csc(Nc2nc(N)c(C(=O)Nc3cc(Cl)ccc3F)o2)n1	–	inconclusive [cytotoxic, single point]
CC(C)(C)N=Cc1c(O)ccc2oc3c(c12)CCCC3	–	inconclusive [cytotoxic, single point]
COc1ccc(C(CCN2CCCC(C)C2)c2c(OC)cc(OC)c3c(-c4ccccc4)cc(=O)oc23)cc1 (stereo not given)	–	inconclusive [cytotoxic, single point]
O=C1Nc2ccc(Cl)cc2/C1=C/C1CC=CCC1 (stereo not given)	–	inconclusive [cytotoxic, single point]
CCN1CCN(c2nc3sc4c(c3c3ncnn23)CC(C)CC4)CC1 (stereo not given)	–	inconclusive [cytotoxic, single point]
CC(C)=CCOc1ccc([C@@H]2COc3c(ccc4c3C=CC(C)(C)O4)C2)c(O)c1	–	inconclusive [cytotoxic, single point]
Cc1onc(-c2ccccc2)c1C(=O)NNC(=O)c1ccccc1	inactive: 13.6%	–
CC(C)(C)OC(=O)[C@H]1[C@H](c2ccc([N+](=O)[O-])cc2)C2(C(=O)c3ccccc3C2=O)C2c3ccccc3C=NN21 (stereo not given in full)	inactive: -8.99%	–
O=C(Nc1ccc(N2CCN(C(=O)c3ccc(Cl)cc3)CC2)cc1)c1ccc2c(c1)OCCO2	–	inconclusive [cytotoxic, partial curve]
COc1ccc(C2Nc3cccc4cccc(c34)N2)cc1Br	inactive: -20.4%	–
O=S(=O)(c1cccc2cnccc12)N1CCNCC1	inconclusive: -12% [cytotoxic]	–
O=C(Nc1ccccc1Cl)c1ccc2c(c1)N(Cc1ccc(F)cc1)C(=O)CS2=O (stereo not given)	inactive: -0.744%	–
Cc1cc(Nc2nc(Cl)c(Cl)cc2Cl)n(-c2ccccc2)n1	–	inconclusive [cytotoxic, single point]
Nc1nc(SCC(=O)Nc2ccccc2)nc2nc3c(cc12)CCCC3	–	inconclusive [cytotoxic, partial curve]
CC1CCN(S(=O)(=O)c2ccc(NC(=O)Cn3nnc(-c4ccccc4F)n3)cc2)CC1	–	active: 20 µM

SMILES	activity, negative = less viability	Potency
CCCCCCNC(=O)CC(NS(=O)(=O)c1ccc(NC(C)=O)cc1)C(C)C (stereo not given)	–	inconclusive [cytotoxic, single point]
Cc1cccc(N2C(=O)N3[C@@H]4c5ccccc5OC[C@@H]4[C@@H](c4ccccc4)[C@@]3(C)C2=O)c1	inactive: 4.41%	–
O=C(Cn1ncc(Cl)c(Cl)c1=O)N1CCN(S(=O)(=O)c2ccc3ccccc3c2)CC1	–	active: 2.59 µM
CC(=O)N(O)CCCCCNC(=O)CCC(=O)N(O)CCCCCNC(=O)CCC(=O)N(O)CCCCCN	–	inconclusive [cytotoxic, partial curve]
Cc1ccc(S(=O)(=O)c2nc(S(=O)(=O)c3ccccc3)sc2N2CCN(C)CC2)cc1	–	inconclusive [cytotoxic, single point]
COc1ccc(-c2nnc3ccc(SC(C(C)=O)C(C)=O)nn23)cc1OC	inactive: -22.5%	–
C[C@H](O)C#Cc1ccc2c(c1)O[C@@H](CN(C)Cc1ccc(-c3ccccc3)cc1)[C@H](C)CN([C@@H](C)CO)S2(=O)=O	–	inconclusive [cytotoxic, single point]
CC(=O)Nc1ccc(S(=O)(=O)NC2(C(F)(F)F)NC(=O)N(C3CCCCC3)C2=O)cc1 (stereo not given)	inactive: 1.67%	–
Nc1c(C(=O)NCc2cccs2)nnn1CC(=O)Nc1cccc(Cl)c1	–	inconclusive [cytotoxic, single point]
CC(C)(C)c1ccc(OCC(=O)NNC(=S)NC(=O)c2ccccc2[N+](=O)[O-])c(Br)c1	–	inconclusive [cytotoxic, single point]
Cc1nn(-c2ccccc2)c2nc(-c3ccncc3)cc(C(=O)NCc3ccco3)c12	–	inconclusive [cytotoxic, single point]
O=C(Nc1cccc2ccccc12)NC1CCCCC1O (stereo not given)	inactive: -0.377%	–
O=C(NCc1ccccc1)C(c1ccccc1)n1c(=O)c(-c2cc3ccccc3[nH]2)nc2ccccc21 (stereo not given)	–	inconclusive [cytotoxic, partial curve]
Cc1sc(NC(=O)c2ccco2)nc1-c1ccc2c(c1)CC(C)N2C(=O)C1CC1 (stereo not given)	–	active: 7.94 µM
CCOc1ccc(NC(=O)c2ccccn2)cc1	–	inconclusive [cytotoxic, single point]
O=C1C=C(Nc2cccc(Cl)c2)CC(c2ccco2)C1 (stereo not given)	inactive: -4.67%	–
C/C(=N\NC1=NCCN1)c1ccc(Cl)cc1	inactive: -22.6%	–
Cc1ccc(NC(=O)CN(C)CC(=O)Nc2c(C)cccc2C)c(Br)c1	inactive: 6.29%	–
Cc1nn(-c2ccccc2)c(N2CCCC2)c1/C=N/NC(=O)c1cc2ccccc2cc1O	–	inconclusive [cytotoxic, single point]
O=C1CCCCc2sc(Br)c([N+](=O)[O-])c2N1	–	inconclusive [cytotoxic, single point]
CCCCCC(=O)N1CC2(C)CN(C(=O)CCCCC)CC(C)(C1)C2=O	inactive: 7.62%	–
Cc1ccc(SCCC(=O)N(C)CC(=O)Nc2c(C)cccc2C)cc1	inactive: -0.344%	–
COc1ccc(-c2nc(CS(=O)(=O)CC(=O)Nc3ccc(Cl)cc3)c(C)o2)cc1	–	inconclusive [cytotoxic, partial curve]
Clc1ccc2ncc(-c3nnnn3-c3ccccc3)c(-c3ccccc3)c2c1	–	active: 20.6 µM

SMILES	activity, negative = less viability	Potency
O=C(Nc1ccccc1)c1nnsc1S(=O)c1ccc(Cl)cc1 (stereo not given)	–	inconclusive [cytotoxic, single point]
CCCC1C(=O)Nc2ccccc2N1C(=O)c1ccc(C(C)(C)C)cc1 (stereo not given)	–	active: 9.2 µM
Cn1cc(CCC(=O)N2CCCC(C(=O)c3cccc4ccccc34)C2)cn1 (stereo not given)	inactive: -7.02%	–
CC(C(=O)N1CCCC1)c1ccc([N+](=O)[O-])cc1 (stereo not given)	–	inconclusive [rising, single point]
COc1cc(/C=N/NC(=O)c2cccnc2)ccc1OC(=O)c1ccc2c(c1)OCO2	inconclusive: -32.1% [cytotoxic]	–
C=CC[C@@H](CC(=O)N(CCO)Cc1ccccc1)C(=O)N[C@@H](COC(=O)[C@H](CC=C)CC(=O)OC(C)(C)C)Cc1c[nH]c2ccccc12	–	inconclusive [cytotoxic, single point]
Cc1cc(Br)cn2c(Cc3ccccc3)c(-c3ccccc3)nc12	inactive: -8.9%	–
COc1ccc(O)c(/C=N/NC(=O)c2ccc(OCc3cccc(Br)c3)cc2)c1	–	active: 1.64 µM
CCN(CC)Cc1cc(Nc2c3ccccc3nc3c4ccccc4n(C)c23)cc(CN(CC)CC)c1O	–	active: 18.4 µM
Cc1c(C(=O)NCCCN2CCCCC2)oc2ccc3c(c12)C(O)CC1(CCCCC1)O3 (stereo not given)	inactive: 1.74%	–
O=C(NCCCCCCNC(=O)c1ccccc1O)c1ccccc1O	inactive: -0.163%	–
O=C(/C=C/c1ccco1)NC(=S)Nc1cccc([N+](=O)[O-])c1	–	active: 20.6 µM
CC(CCc1ccco1)NC(=O)Cn1ncc2c1-c1ccccc1OC2 (stereo not given)	inactive: -9.61%	–
CCOC(=O)CNC(=O)N(C)[C@H]1C[C@H]2c3[nH]c4ccccc4c3CCN2C(=O)[C@H]1[C@H](C)O	inconclusive: 30%	–
O=C(Cc1cccc2ccccc12)Nc1cccnc1	–	inconclusive [rising, single point]
Fc1ccc(NCc2nnc(SCc3nnc(-c4ccccc4)o3)n2Cc2ccccc2)cc1	–	inconclusive [cytotoxic, single point]
O=C(c1ccccc1)c1ccc2nc(-c3ccco3)c(-c3ccco3)nc2c1	–	inconclusive [cytotoxic, single point]
CCn1c(=O)cc(SCC(=O)N2CCOCC2)c2ccccc21	inactive: -0.215%	–
Nc1nc(C(=O)N2CCOCC2)nn1S(=O)(=O)c1ccc(Cl)cc1	inactive: 11.6%	–
Cn1c(NCC(O)c2ccccc2)nc2c1c(=O)n(Cc1ccc(Cl)c(Cl)c1)c(=O)n2C (stereo not given)	–	active: 20.6 µM
Cn1c(C(=O)N2CCCC(C(=O)NCCc3ccccc3)C2)cc2sccc21 (stereo not given)	–	inconclusive [cytotoxic, single point]
Cc1cnc(NC(=O)CC(C)c2ccccc2)s1 (stereo not given)	–	inconclusive [cytotoxic, partial curve]
